Experimental data published in PubChem BioAssay AID445 (National Center for Advancing Translational Sciences (NCATS), 2006).
Among all 110,000 compounds or so, about 40 (0.04%) were called active. The inconclusive results got no clear call from the source; some entries with a clear call stand among them for comparison. Calls follow the shape of the dose curve; as a rule, active = well fitted curve in the direction sought with a large enough effect in the signal ratio (not every such curve was filed as active); inconclusive = small, poorly fitted or top-dose-only effect, or a change in a side signal; inactive = flat fitted curve, though single readings scatter; the % refers to the signal ratio. Where the call is inconclusive, the potency comes from a doubtful curve fit.

Test: IkB Signaling;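 as to IkBa stabilization activation: 0% = basal untreated cells and 100% = reference inhibitor full response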
Conditions: ABC-DLBCL IkBa-CBG/CBR dual luciferase ratio (green luciferase fused to IkBa over red control in OCI-Ly3 lymphoma cells), 4 h; IkBa stabilization activation: at 57.1 µM (top of the series), scaled: untreated 0%, proteasome inhibitor 100% unless noted
Outline: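 Curves were fitted separately to fusion (green), unfused (red) and ratio luminescence, then classed by r2, magnitude and activity. Cells: OCI-Ly3, 4 h compound plus doxycycline at 37C; 10 uM MG-132 defined full response.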
Potency is read from the fitted curve at half-maximal effect.

Question: For `O=c1c2ccccc2nnn1CSc1nnc(-c2ccc3c(c2)OCO3)o1`, which IkBa stabilization activation is on record?
Answer: inconclusive: 0.346% [signal inhibitor]

Question: With `O=S(=O)(Nc1ccc(-c2nc3ccccc3o2)cc1)c1ccccc1` as the compound, how does the IkBa stabilization activation read?
Answer: inconclusive: 2.9% [signal inhibitor]

Question: With `Cc1ccccc1CSc1nc(-c2cccc(F)c2)nc2c1Cc1c(CO)cnc(C)c1O2` as the compound, how does the IkBa stabilization activation read?
Answer: inconclusive: 0.16% [signal inhibitor]

Question: For `Cc1ccc(S(=O)(=O)N[C@H](CO)C(=O)O)cc1`, which IkBa stabilization activation is on record?
Answer: inactive: 0.445% [at 11.4 µM, scaled: untreated 0%, proteasome inhibitor 100%]

Question: With `Cc1nc(SCC(=O)NCC2CCCO2)c2oc3ccccc3c2n1` (configuration not stated) as the compound, how does the “IkBa stabilization activation” value read?
Answer: inactive: 0.606%

Question: For `COc1ccc(OC)c(CNC(=O)c2nn(C)c3c2CS(=O)(=O)c2ccccc2-3)c1`, which IkBa stabilization activation is on record?
Answer: inconclusive: 2.79% [signal inhibitor]

Question: Which “IkBa stabilization activation” value does the source give for `CN(C)C(=O)c1ccc2c(c1)N(CC(=O)NCc1ccccc1Cl)C(=O)C1CCCCN21` (configuration not stated) here?
Answer: inactive: 0.456%

Question: Which IkBa stabilization activation does the source give for `O=c1cnc2cnc(N3CCOCC3)nc2n1Cc1ccc(F)cc1` here?
Answer: inactive: -0.268% [at 11.4 µM, scaled: untreated 0%, proteasome inhibitor 100%]

Question: With `COc1ccc(N2CCN(C(=O)CN3C(=O)COc4ccc(S(=O)(=O)N5CCC(C)CC5)cc43)CC2)cc1` as the compound, how does the IkBa stabilization activation read?
Answer: inconclusive: 0.883% [signal inhibitor]

Question: With `Cc1ccc2nc(-c3ccc(C)o3)c(Nc3ccc4c(c3)OCCO4)n2c1` as the compound, how does the IkBa stabilization activation read?
Answer: inconclusive: -1.55% [signal inhibitor]

Question: With `CCOc1cc(CNC(=O)c2ccc3nc(C(C)C)oc3c2)cc(OCC)c1OCC` as the compound, how does the IkBa stabilization activation read?
Answer: inconclusive: 2.13% [signal inhibitor]

Question: Which IkBa stabilization activation does the source give for `c1ccc(CNc2nc(-c3ccc4c(c3)OCO4)nc3ccccc23)cc1` here?
Answer: inactive: 1.46% [at 11.4 µM, scaled: untreated 0%, proteasome inhibitor 100%]

Question: For `O=C(Cn1c(=O)n(-c2ccccc2)c(=O)c2ccc(C(=O)NCc3ccc4c(c3)OCO4)cc21)Nc1ccc(Br)cc1`, which “IkBa stabilization activation” value is on record?
Answer: inactive: -2.47%

Question: For `CCCCN(CC)C(=O)c1nn(-c2ccc(OC)cc2)c(=O)c2c1c1ccccc1n2C`, which IkBa stabilization activation is on record?
Answer: inconclusive: 0.719% [signal inhibitor]

Question: With `COc1ccc(OC)c(CNC(=O)c2ccc3c(c2)c(C)c(C)n3C)c1` as the compound, how does the IkBa stabilization activation read?
Answer: inconclusive: 4.01% [signal inhibitor]

Question: With `CCS(=O)(=O)c1oc(-c2ccc(F)cc2)nc1S(=O)(=O)c1ccccc1` as the compound, how does the IkBa stabilization activation read?
Answer: inconclusive: -4.82% [signal inhibitor]

Question: For `Cc1ccc(NC(=O)C2CCCN2S(=O)(=O)c2ccc3c(c2)CCC(=O)N3)cc1Cl` (configuration not stated), which IkBa stabilization activation is on record?
Answer: inconclusive: 5.37% [signal inhibitor]

Question: With `N/C(=N\c1nc2ccccc2o1)NC(=O)C(Cc1ccccc1)N1C(=O)c2ccccc2C1=O` (configuration not stated) as the compound, how does the IkBa stabilization activation read?
Answer: inconclusive: 0.626% [signal inhibitor]

Question: With `CC(C)(C)NC(=O)NC(=O)COc1ccccc1C#N` as the compound, how does the IkBa stabilization activation read?
Answer: inconclusive: 17.5% [signal inhibitor]

Question: For `O=C(CCn1ccc2cc(S(=O)(=O)N3CCCC3)ccc21)NCc1ccccc1Br`, which IkBa stabilization activation is on record?
Answer: inconclusive: -0.564% [signal inhibitor]

Question: With `CCC(C)(C)n1nnnc1CN(Cc1ccco1)Cc1cc2cc3c(cc2[nH]c1=O)OCO3` as the compound, how does the IkBa stabilization activation read?
Answer: inconclusive: 7.92% [signal inhibitor]

Question: For `Cc1cccc(C2CC(=O)Nc3cc4c(cc32)OCO4)c1` (configuration not stated), which IkBa stabilization activation is on record?
Answer: inconclusive: 8.23% [signal inhibitor]

Question: Which IkBa stabilization activation does the source give for `Cc1cc2ccccc2n1CCNC(=O)c1ccc(Br)cc1` here?
Answer: inconclusive: -1.09% [signal inhibitor]

Question: Which IkBa stabilization activation does the source give for `CCc1ccc(NC(=O)CN2C(=O)C3(SCC(=O)N3c3ccc(F)c(F)c3)c3ccccc32)cc1` (configuration not stated) here?
Answer: inconclusive: 0.505% [signal inhibitor]

Question: With `COc1ccc(CNC(=O)CCc2c(C)c3cc4c(C)c(C)oc4cc3oc2=O)cc1OC` as the compound, how does the “IkBa stabilization activation” value read?
Answer: inactive: 0.371%

Question: Which IkBa stabilization activation does the source give for `CC(C)c1ccc(OCC(=O)N(Cc2cccs2)C2CCS(=O)(=O)C2)cc1` (configuration not stated) here?
Answer: inconclusive: 2.26% [signal inhibitor]

Question: With `Cc1csc(NC(=O)c2ccccc2O)n1` as the compound, how does the Potency read?
Answer: inconclusive: 7.94 µM [signal inhibitor, partial curve]

Question: For `Cc1c(C(=O)Nc2ccc(F)cc2)oc2ccc(S(=O)(=O)N3CCCC3)cc12`, which IkBa stabilization activation is on record?
Answer: inconclusive: 7.59% [signal inhibitor]

Question: For `COc1ccccc1OCC(=O)Nc1oc(-c2ccccc2)c(-c2ccccc2)c1C#N`, which IkBa stabilization activation is on record?
Answer: inconclusive: 3.06% [signal inhibitor]

Question: Which IkBa stabilization activation does the source give for `CCC(C(=O)N1CCN(c2ccccc2)CC1)n1c(C)c2cnn(-c3ccccc3)c(=O)c2c1C` (configuration not stated) here?
Answer: inconclusive: 0.027% [signal inhibitor]

Question: For `Cc1nnc(N2CCC(C(=O)NCCC(C)C)CC2)c2nn(-c3ccc(Cl)cc3)c(C)c12`, which IkBa stabilization activation is on record?
Answer: inconclusive: 1.76% [signal inhibitor]

Question: With `COC(=O)c1ccc(NC(=O)CN2C(=O)CC(c3ccccc3)Sc3ccccc32)cc1` (configuration not stated) as the compound, how does the IkBa stabilization activation read?
Answer: inconclusive: 4.94% [signal inhibitor]

Question: With `Cc1cc(C)n(C(C)CC(=O)Nc2ccc(C)c(N(C)C)c2)n1` (configuration not stated) as the compound, how does the “IkBa stabilization activation” value read?
Answer: inactive: -1.91%

Question: Which “IkBa stabilization activation” value does the source give for `COC(=O)c1ccc(CSc2nc(-c3ccc(OC)cc3)nc3c2c(=O)n(C)c(=O)n3C)o1` here?
Answer: inactive: -0.0041%

Question: With `CSc1ccc(-c2nnc(NC(=O)c3ccc4c(c3)OCCO4)o2)cc1` as the compound, how does the IkBa stabilization activation read?
Answer: inconclusive: 8.91% [signal inhibitor]

Question: Which IkBa stabilization activation does the source give for `CC(=O)Nc1ccc(OCC(O)CN2CCN(c3ccc(C)c(Cl)c3)CC2)cc1` (configuration not stated) here?
Answer: inconclusive: 2.87% [signal inhibitor]

Question: Which IkBa stabilization activation does the source give for `CCOc1ccc(CNCc2c(C(=O)O)c(C)n(Cc3c(F)cccc3Cl)c2C)cc1OC` here?
Answer: inconclusive: -0.265% [signal inhibitor]

Question: With `C=CCn1c(SCC(=O)N2CCOCC2)nc2sc3c(c2c1=O)CCCC3` as the compound, how does the “IkBa stabilization activation” value read?
Answer: inactive: -3.73%

Question: Which IkBa stabilization activation does the source give for `Cc1ccc(-c2cn3c(n2)sc2cc(C(=O)NCCCc4ccccc4)ccc23)c(C)c1` here?
Answer: inconclusive: 1.46% [signal inhibitor]

Question: Which IkBa stabilization activation does the source give for `CCOC(=O)c1c(CN2CCOCC2)n(C)c2cc(Br)c(O)c(CN(C)C)c12` here?
Answer: inconclusive: 3.85% [signal inhibitor]

Question: With `O=C(Nc1ccc2nc(-c3ccc(Br)o3)[nH]c2c1)c1cccs1` as the compound, how does the IkBa stabilization activation read?
Answer: inconclusive: -2.21% [signal inhibitor]

Question: For `CC(C)Cn1c(SCC(=O)NC(=O)Nc2ccc3c(c2)OCCO3)nc2ccccc2c1=O`, which “IkBa stabilization activation” value is on record?
Answer: inactive: 6.42%

Question: For `O=C(Nc1ccccc1)OCCOc1ccccc1`, which IkBa stabilization activation is on record?
Answer: inconclusive: 13.3% [signal inhibitor]

Question: With `Cc1ccc2oc(=O)n(CCCOc3ccccc3Cl)c2c1` as the compound, how does the IkBa stabilization activation read?
Answer: inconclusive: 9.51% [signal inhibitor]

Question: Which “IkBa stabilization activation” value does the source give for `COc1ccccc1-c1noc(-c2ccc(NCC3CCCO3)c([N+](=O)[O-])c2)n1` (configuration not stated) here?
Answer: inactive: 1.24%

Question: Which “IkBa stabilization activation” value does the source give for `O=C(CCC1COc2ccccc2O1)Nc1ccccn1` (configuration not stated) here?
Answer: inactive: -2.68%

Question: For `CC(CCc1ccccc1)NC(=O)Cn1c(=O)nc(-c2ccccc2)c2ccccc21` (configuration not stated), which IkBa stabilization activation is on record?
Answer: inconclusive: 1.9% [signal inhibitor]

Question: Which IkBa stabilization activation does the source give for `CCOC(=O)c1cnc2c(C)c(Cl)ccc2c1Nc1ccc(N2CCOCC2)cc1` here?
Answer: inconclusive: 9.08% [signal inhibitor]

Question: With `Cc1ccccc1Nc1c(-c2cccnc2)nc2ccc(Cl)cn12` as the compound, how does the IkBa stabilization activation read?
Answer: inconclusive: -2.39% [signal inhibitor]

Question: With `COc1ccc(C2=C(Nc3ccc(C)cc3C)c3ccccc3C2=O)cc1` as the compound, how does the IkBa stabilization activation read?
Answer: inconclusive: 1.59% [signal inhibitor]

Question: For `CCn1c(=O)c(C(=O)NCc2ccc(OC)cc2)c(O)c2ccccc21`, which “IkBa stabilization activation” value is on record?
Answer: inactive: 1.29%

Question: With `Cc1cc(-c2[nH]nc3c2C(c2ccsc2)C(C#N)=C(N)O3)c(C)s1` (configuration not stated) as the compound, how does the IkBa stabilization activation read?
Answer: inconclusive: 6.04% [signal inhibitor]

Question: For `O=C(Cn1cnc2c(cnn2-c2ccccc2)c1=O)OCc1ccccc1`, which IkBa stabilization activation is on record?
Answer: inconclusive: 2.4% [signal inhibitor]

Question: For `Cc1ccn2c(=O)cc(COc3cccc(NC(=O)Nc4cccc(Cl)c4C)c3)nc2c1`, which IkBa stabilization activation is on record?
Answer: inconclusive: 4.34% [signal inhibitor]

Question: With `COc1ccccc1NC(=O)C1=C(C)Nc2nc3ccccc3n2C1c1cccc(OC)c1OC` (configuration not stated) as the compound, how does the IkBa stabilization activation read?
Answer: inconclusive: 5.77% [signal inhibitor]

Question: With `Cc1ccc(CNC(=O)c2ccc(CS(=O)Cc3cccc(Cl)c3)o2)cc1` (configuration not stated) as the compound, how does the IkBa stabilization activation read?
Answer: inconclusive: 2.22% [signal inhibitor]

Question: Which IkBa stabilization activation does the source give for `CCC(=O)N1CCN(c2nc(-c3ccccc3)c3c(c2C#N)CCCC3)CC1` here?
Answer: inconclusive: -6.3% [signal inhibitor]

Question: With `CCOc1cc(C(=O)NCC(c2ccc(N(C)C)cc2)N2CCOCC2)cc(OCC)c1OCC` (configuration not stated) as the compound, how does the IkBa stabilization activation read?
Answer: inconclusive: 4.06% [signal inhibitor]

Question: For `Cc1cccc2c1-c1sc(C(=O)N(C)c3cccc(Cl)c3)cc1CO2`, which IkBa stabilization activation is on record?
Answer: inconclusive: -0.273% [signal inhibitor]

Question: With `CC(C)c1cnc2c(c1SCC(=O)NCc1ccccc1Cl)c(=O)n(C)c(=O)n2C` as the compound, how does the IkBa stabilization activation read?
Answer: inconclusive: -0.432% [signal inhibitor]

Question: Which “IkBa stabilization activation” value does the source give for `CCOc1ccccc1C(=O)NC1(C(F)(F)F)C(=O)Nc2c1c(=O)[nH]c(=O)n2-c1ccc(F)cc1` (configuration not stated) here?
Answer: inactive: -1.66%

Question: With `CSc1ccc(CCNC(=O)CCc2c(C)nc3ncnn3c2C)cc1` as the compound, how does the IkBa stabilization activation read?
Answer: inconclusive: 1.59% [signal inhibitor]

Question: Which IkBa stabilization activation does the source give for `COc1cc2c(cc1OC)C(C)N(C(=O)c1cc3n(n1)C(C(F)(F)F)CC(c1ccco1)N3)CC2` (configuration not stated) here?
Answer: inconclusive: 1.15% [signal inhibitor]

Question: With `Cn1nnnc1SCCNCc1cc(Br)ccc1OCc1ccccc1Cl` as the compound, how does the IkBa stabilization activation read?
Answer: inconclusive: 0.73% [signal inhibitor]

Question: For `O=C(CCn1cccn1)Nc1ccc(Br)cc1F`, which “IkBa stabilization activation” value is on record?
Answer: inactive: -0.269%

Question: With `CCCn1c(=N)c(C(=O)NCC2CCCO2)cc2c(=O)n3cccc(C)c3nc21` (configuration not stated) as the compound, how does the “IkBa stabilization activation” value read?
Answer: inactive: 0.216%

Question: Which “IkBa stabilization activation” value does the source give for `COc1ccc(CNC(=O)c2ccc3c(c2)N(Cc2c(F)cccc2Cl)C(=O)CS3)cc1` here?
Answer: inactive: 1.89%
